Assay results published in the supplement of paper PMC4723716.
± gives the uncertainty stated by the source. The full ranking holds about 9,900 compounds; the median of “viability index relative to DMSO control” is about 1, and the lowest 2% start at about 0.85. Some of the results follow.

System: Plasmodium falciparum NF54 stage V gametocytes
Experiment: viability index relative to DMSO control (fraction); higher = less gametocyte killing
Conditions: 2.5 µM, incubation time: 72 h
Method in brief: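 P. falciparum NF54 stage V gametocytes in serum-free screening medium (0.75% gametocytemia, 1.25% hematocrit, 10 µl) were incubated with compound at 2.5 µM in 1,536-well plates for 72 hr at 37°C under low oxygen. Then 3 µl of 2.5 µM MitoTracker Red CMXRos plus 0.13% saponin was added for one to two hours. One field per well was imaged, 20–70 µm2 red particles were counted, and the viability index was the count divided by the plate mean of DMSO wells.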

[1] = library set: Broad Institute DOS

For `CN(C)C(=O)c1cc2c(c(-c3cccc(/C=C/c4ccccc4)c3)n1)[C@H](CCO)N([S@@](=O)C(C)(C)C)C2`, the viability index [1] was 0.973 ± 0.089.

`CN(C)C(=O)c1cccc(-c2ccccc2[C@@H]2[C@@H](C#N)N(C(=O)C3CCCCC3)[C@H]2CO)c1` gave a viability index [1] of 1.11 ± 0.11.

`CCCNC(=O)N1CC(=O)N2[C@H](CO)[C@H](c3ccc(-c4ccc(F)cc4)cc3)[C@@H]2C1` gave a viability index [1] of 0.963 ± 0.026.

`CO[C@@H]1CN(C)C(=O)c2ccc(NS(C)(=O)=O)cc2OC[C@@H](C)N(C(=O)CN(C)C)C[C@H]1C` gave a viability index [1] of 0.977 ± 0.055.

In the case of `COC(=O)C[C@H]1CC[C@@H]2[C@@H](COc3ccc(NC(=O)Nc4c(C)noc4C)cc3C(=O)N2C)O1`, the viability index [1] is reported as 0.983 ± 0.14.

With `O=C(C[C@H]1CC[C@@H]2[C@H](COC[C@H](O)CN2CC2CCOCC2)O1)NCc1ccc(Cl)cc1` the viability index [1] was 1.12 ± 0.015.

Molecule `C/C=C/c1ccc([C@H]2[C@H](CO)N3C(=O)CN(S(=O)(=O)c4ccccc4)C[C@@H]23)cc1` has a viability index [1] of 1.002 ± 0.0044.

`COc1ccc(NC(=O)N(C)C[C@H]2Oc3c(NC(=O)CCCCCC(=O)Nc4ccccc4N)cccc3C(=O)N([C@H](C)CO)C[C@@H]2C)cc1` was tested, and the viability index [1] was 0.985 ± 0.11.

For `O=C(Nc1cccc(Cl)c1)N[C@@H]1CC[C@@H](CCn2cc(Cc3ccccc3)nn2)O[C@@H]1CO`, the viability index [1] was 1.09 ± 0.079.

Work on `C[C@H](CO)N1C[C@H](C)[C@H](CN(C)S(=O)(=O)c2cn(C)cn2)OCc2ccccc2-c2ccccc2C1=O` yielded a viability index [1] of 0.955 ± 0.1.

`C[C@@H]1CN([C@@H](C)CO)S(=O)(=O)c2ccc(-c3ccc(F)cc3)cc2O[C@@H]1CN(C)Cc1ccccc1C(=O)O` showed a viability index [1] of 1.0249 ± 0.00085.

Molecule `CN(C)C(=O)C[C@@H]1C[C@@H]2c3cc(NC(=O)c4cccnc4)ccc3O[C@@H]2[C@H](CO)O1` has a viability index [1] of 1.126 ± 0.0019.

For `O=C1CNC[C@@H]2[C@@H](c3ccc(C4=CCCC4)cc3)[C@@H](CO)N12`, the viability index [1] was 0.996 ± 0.074.

Work on `CCS(=O)(=O)Nc1ccc2c(c1)C(=O)N(C)[C@H]1CC[C@H](CC(=O)NCc3ccc(OC)cc3)O[C@@H]1CO2` yielded a viability index [1] of 0.933 ± 0.14.

Work on `CCC(=O)N1CC(=O)N2[C@H](CO)[C@H](c3ccc(-c4ccc(C#N)cc4)cc3)[C@@H]2C1` yielded a viability index [1] of 1.003 ± 0.0037.

`CCC(=O)N1[C@@H]2CN(S(=O)(=O)c3ccc(F)cc3)c3ccccc3[C@@H]2[C@@H]1CO` was tested, and the viability index [1] was 1.02 ± 0.07.

With `COc1ccccc1CN1[C@@H]2CNC[C@H]1[C@@H]2c1ccc(-c2cccc(C#N)c2)cc1` the viability index [1] was 1 ± 0.04.

`C[C@H](CO)N1C[C@H](C)[C@@H](CN(C)Cc2ccncc2)OCCCC[C@H](C)Oc2ccc(NS(=O)(=O)c3ccc(Cl)cc3)cc2C1=O` was tested, and the viability index [1] was 1.098 ± 0.0097.

`CO[C@H]1CN(C)C(=O)c2ccc(NC(=O)C3CCC3)cc2OC[C@@H](C)N(Cc2ccccn2)C[C@@H]1C` showed a viability index [1] of 1.11 ± 0.055.

`CC(C)[C@H]1C/C=C\CCNC(=O)[C@@H](C)CC(=O)N1` was tested, and the viability index [1] was 1.02 ± 0.073.

`COc1ccc(S(=O)(=O)N(C)C[C@H]2Oc3c(NC(=O)Nc4cccc5ccccc45)cccc3C(=O)N([C@@H](C)CO)C[C@H]2C)cc1` was tested, and the viability index (library set: Broad Institute Blood Stage) was 0.767 ± 0.035.

`CN1CCN(C(=O)C[C@H]2CC[C@H]3[C@@H](COC[C@H](O)CN3C(=O)c3ccccc3F)O2)CC1` showed a viability index [1] of 0.997 ± 0.099.

`Cc1ccc(S(=O)(=O)N[C@@H]2CC[C@@H](CC(=O)NCc3ccncn3)O[C@H]2CO)cc1` gave a viability index [1] of 0.929 ± 0.075.

Work on `COc1ccc(CN2[C@H](CO)[C@@H]3c4ccccc4N(C(=O)NC(C)C)C[C@@H]32)cc1` yielded a viability index [1] of 1.06 ± 0.024.

`Cc1noc(C)c1NC(=O)N(C)C[C@@H]1OCCCC[C@@H](C)Oc2ccc(NC(=O)Nc3ccc(C(F)(F)F)cc3)cc2C(=O)N([C@@H](C)CO)C[C@H]1C` gave a viability index [1] of 1.03 ± 0.053.

Work on `C[C@H]1CN([C@@H](C)CO)C(=O)c2cc(NC(=O)Cn3cnnn3)ccc2O[C@@H]1CN(C)Cc1ccc(C(=O)Nc2ccccc2N)cc1` yielded a viability index [1] of 1.05 ± 0.12.

Molecule `COc1ccccc1S(=O)(=O)N(C)C[C@@H]1OCc2ccccc2-c2ccccc2C(=O)N([C@@H](C)CO)C[C@H]1C` has a viability index [1] of 1.07 ± 0.095.

Molecule `C[C@H]1CN([C@@H](C)CO)C(=O)CCCn2cc(nn2)CO[C@H]1CN(C)C(=O)c1ccc(N2CCN(C)CC2)cc1` has a viability index [1] of 1 ± 0.014.

`COc1cccc(-c2ccc3c(c2)[C@@H]2[C@@H](CCN2S(=O)(=O)c2cn(C)cn2)[C@@H](CO)N3)c1` showed a viability index [1] of 0.97 ± 0.14.

For `C[C@@H]1CN([C@H](C)CO)C(=O)c2ccccc2-c2ccccc2CO[C@@H]1CN(C)C(=O)[C@@H]1CCCN1C`, the viability index [1] was 0.9984 ± 0.0065.

With `C[C@H]1CN([C@@H](C)CO)C(=O)c2ccccc2-c2ccccc2CO[C@@H]1CN(C)C(=O)Nc1cccc(C(F)(F)F)c1` the viability index [1] was 1 ± 0.12.

`CCCNC(=O)Nc1ccc2c(c1)OC[C@@H](C)N(Cc1cncnc1)C[C@H](C)[C@@H](OC)CN(C)C2=O` showed a viability index [1] of 1.05 ± 0.075.

`CN(C)C(=O)C[C@H]1C[C@H]2c3cc(NC(=O)Nc4ccc(F)cc4)ccc3O[C@H]2[C@H](CO)O1` gave a viability index [1] of 1.05 ± 0.073.

For `COCc1cn(CC[C@H]2CC[C@H](NC(=O)Nc3c(C)noc3C)[C@H](CO)O2)nn1`, the viability index [1] was 1.05 ± 0.052.

`COCC(=O)N1[C@H](CO)[C@H](c2ccccc2C2=CCCC2)[C@@H]1C#N` was tested, and the viability index [1] was 1.16 ± 0.12.

`CO[C@@H]1CN(C)C(=O)c2cc(NS(=O)(=O)CC(F)(F)F)ccc2OC[C@@H](C)NC[C@@H]1C` showed a viability index [1] of 1.01 ± 0.12.

For `O=C(C[C@@H]1C[C@H]2c3cc(NC(=O)c4ccc5c(c4)OCO5)ccc3O[C@H]2[C@H](CO)O1)NCc1ccc(Oc2ccccc2)cc1`, the viability index [1] was 1.07 ± 0.055.

For `CC(C)C#Cc1ccc([C@@H]2[C@@H](CO)N3C(=O)CN(C(=O)NC4CCCC4)C[C@@H]23)cc1`, the viability index [1] was 1.07 ± 0.037.

Molecule `CN1C(=O)c2cc(NC(=O)Nc3ccccc3Cl)ccc2OC[C@@H]2O[C@@H](CC(=O)NCCCN3CCOCC3)CC[C@H]21` has a viability index [1] of 1.15 ± 0.13.

`C[C@H](CO)N1C[C@H](C)[C@H](CN(C)Cc2ccc(Oc3ccccc3)cc2)OCc2ccccc2-c2ccccc2C1=O` was tested, and the viability index [1] was 0.931 ± 0.045.

`C[C@@H]1CN([C@H](C)CO)C(=O)c2ccccc2-c2ccccc2CO[C@@H]1CN(C)C(=O)Nc1ccc(-c2ccccc2)cc1` was tested, and the viability index [1] was 0.987 ± 0.069.

`O=C(C1CCOCC1)N1[C@@H](CO)[C@@H](c2ccccc2)C12CN(CCC(F)(F)F)C2` was tested, and the viability index [1] was 0.992 ± 0.1.

`Cc1ccc(S(=O)(=O)N2CC[C@@H]3[C@@H](CO)N(C)c4ccc(-c5ccccc5F)cc4[C@@H]32)cc1` showed a viability index [1] of 1.07 ± 0.023.

In the case of `C[C@H]1CN([C@@H](C)CO)C(=O)c2cc(NC(=O)Nc3cccc4ccccc34)ccc2O[C@H]1CN(C)S(=O)(=O)c1cccs1`, the viability index [1] is reported as 0.911 ± 0.088.

In the case of `C[C@@H]1CCCCO[C@@H](CN(C)C(=O)Cc2ccccc2)[C@@H](C)CN([C@H](C)CO)C(=O)c2cc(NS(C)(=O)=O)ccc2O1`, the viability index [1] is reported as 1.04 ± 0.033.

`COc1ccc2c3c([C@H](CO)N(C[C@]33CN(C3)C(=O)CN3CCOCC3)C(=O)Nc3ccc(F)cc3)n(C)c2c1` was tested, and the viability index [1] was 1.01 ± 0.075.

`C[C@@H]1CN([C@H](C)CO)C(=O)c2cc(NS(C)(=O)=O)ccc2O[C@H]1CN(C)C` was tested, and the viability index [1] was 1.04 ± 0.06.

With `Cc1cccc(S(=O)(=O)N2C[C@@H]3N[C@H](C2)[C@H]3c2ccc(-c3cncnc3)cc2)c1` the viability index [1] was 1.01 ± 0.045.

With `O=C(C[C@@H]1CC[C@@H]2NC[C@H](O)COC[C@H]2O1)Nc1ccc(-c2ccccc2)cc1` the viability index [1] was 1.09 ± 0.096.

Molecule `C[C@@H](NC(=O)[C@@H]1[C@@H](CO)[C@@H]2Cn3c(cccc3=O)[C@H]1N2C(=O)C1CCC1)c1ccccc1` has a viability index [1] of 1.07 ± 0.025.

`O=C(c1ccc(F)cc1)N1C[C@@H]2N[C@H](C1)[C@@H]2c1ccc(-c2cccnc2)cc1` showed a viability index [1] of 1.06 ± 0.034.

With `CCCC#Cc1ccc([C@H]2[C@@H](CO)N(C(=O)NC(C)C)[C@H]2CNC(C)=O)cc1` the viability index [1] was 0.979 ± 0.044.

`CC(C)NC(=O)Nc1ccc2c(c1)C(=O)N([C@H](C)CO)C[C@@H](C)[C@@H](CN(C)C(=O)C1CCCCC1)OCCCC[C@H](C)O2` showed a viability index [1] of 1.04 ± 0.028.

With `O=C(C[C@H]1C[C@@H]2c3cc(NC(=O)c4ccc5c(c4)OCO5)ccc3O[C@@H]2[C@H](CO)O1)NCCN1CCCCC1` the viability index [1] was 1.06 ± 0.015.

With `CN1CCN(C(=O)C[C@H]2C[C@@H]3c4cc(NS(C)(=O)=O)ccc4O[C@@H]3[C@@H](CO)O2)CC1` the viability index [1] was 1.07 ± 0.02.

For `Cc1ccccc1-c1ccc([C@H]2[C@H](CO)N3C(=O)CN(C(=O)Nc4cccc(F)c4)C[C@@H]23)cc1`, the viability index [1] was 1.02 ± 0.042.

`CCCNC(=O)N1C[C@@H]2N[C@H](C1)[C@@H]2c1ccc(-c2ccc(OC)cc2)cc1` was tested, and the viability index [1] was 1.1 ± 0.12.

`C[C@@H]1CN([C@H](C)CO)C(=O)c2ccccc2-c2ccccc2CO[C@H]1CN(C)S(=O)(=O)c1cn(C)cn1` showed a viability index [1] of 0.944 ± 0.034.

In the case of `Cn1cnc(CCNC(=O)C[C@@H]2CC[C@@H]3[C@H](COC[C@@H](O)CN3C(=O)Nc3ccc(C(F)(F)F)cc3)O2)c1`, the viability index [1] is reported as 1.06 ± 0.069.

For `CC(=O)N1[C@H](CO)[C@H]2c3ccccc3N(C(=O)c3ccc(F)cc3)C[C@H]21`, the viability index [1] was 0.969 ± 0.025.

Molecule `CO[C@@H]1CN(C)C(=O)c2cc(NS(C)(=O)=O)ccc2OC[C@H](C)N(Cc2cncnc2)C[C@@H]1C` has a viability index [1] of 1.06 ± 0.07.

In the case of `O=C(C[C@@H]1CC[C@H](NC(=O)CN2CCOCC2)[C@@H](CO)O1)NC1CCC1`, the viability index [1] is reported as 1.05 ± 0.038.

For `C/C=C/c1ccc([C@@H]2[C@@H](CO)N3C(=O)CN(C(=O)Nc4ccc(F)cc4)C[C@@H]23)cc1`, the viability index [1] was 1.02 ± 0.065.

`COc1ccccc1CN1[C@@H]2CNC[C@H]1[C@H]2c1ccc(-c2cccc(C#N)c2)cc1` gave a viability index [1] of 1.06 ± 0.049.

`CO[C@@H](CN(C)C(=O)c1cnccn1)[C@@H](C)CN([C@H](C)CO)S(=O)(=O)c1ccccc1` was tested, and the viability index [1] was 0.911 ± 0.015.

Molecule `CN1C(=O)c2cc(NS(C)(=O)=O)ccc2OC[C@H]2O[C@@H](CC(=O)N3CCOCC3)CC[C@H]21` has a viability index [1] of 1.07 ± 0.066.

Molecule `C[C@@H]1CN([C@@H](C)CO)C(=O)c2ccccc2-c2ccccc2CO[C@H]1CN(C)C(=O)Nc1cccc(Cl)c1Cl` has a viability index [1] of 0.72 ± 0.16.

`CN(C)C(=O)c1cc2c(c(-c3cccc(C4=CCCCC4)c3)n1)[C@H](CCO)N(S(C)(=O)=O)C2` showed a viability index [1] of 0.989 ± 0.071.

`COC(=O)C[C@@H]1C[C@H]2c3cc(NC(=O)c4ccc5c(c4)OCO5)ccc3O[C@H]2[C@@H](CO)O1` showed a viability index [1] of 1.11 ± 0.022.

In the case of `COc1ccccc1-c1ccccc1[C@@H]1[C@@H](C#N)N(C(=O)CN(C)C)[C@H]1CO`, the viability index [1] is reported as 1.16 ± 0.1.
